# Results taken from PubChem BioAssay AID1508623 (National Center for Advancing Translational Sciences (NCATS), 2021).
# In all, about 48,000 compounds went through this assay and about 450 (0.94%) were called active. About 19% were inconclusive and are not listed. The call rests on the fitted dose curve; in most records, active means well fitted inhibition curve with a large enough effect; inconclusive means small, poorly fitted or top-dose-only effect; inactive means no such curve, though single readings can be large or run the other way. The list shows a part of the results.
# Assay: Primary qHTS for Identification of Small Molecule Inhibitors of Huntingtin Promoter Activity; further: nearly all actives have a fitted effect of over 50% in size
# Settings: HEK293 HTT promoter firefly luciferase reporter (activity 0% = vehicle and -100% = no light), 24 h; series mostly up to 57.5 µM; activity change, negative = inhibition: at the top concentration
# Method in brief: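 HEK293 luciferase promoter-reporter cells (2,500/well) plated 24 h, then compounds added at up to 57.5 uM final for 24 h at 37 °C. Firefly luminescence by Dual-Glo, normalized to vehicle (0%) and zero RLU (-100%).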
# Potency means the concentration at half of the fitted maximal effect.
Structure (SMILES),"activity change, negative = inhibition",Potency
COc1ccc(C(=O)CCC(=O)Nc2ccc(C)c(Cl)c2)cc1,inactive: 7.94%,
COc1cc(Cl)c(C)cc1Nc1nc2ccccc2n2cnnc12,inactive: -14.4%,
COc1ccccc1CNC(=O)C1CCN(S(=O)(=O)c2cn(C)cn2)CC1,inactive: -21.4%,
CCc1ccccc1N(C)C(=O)c1sc2nc3n(c(=O)c2c1C)CCCCC3,inactive: -1.9%,
COc1ccc(CNC(=O)C2CCN(S(=O)(=O)c3ccc4c(c3)CCCN4C(C)=O)CC2)cc1,inactive: -18%,
CCc1ccccc1NC(=O)c1sc(-n2nc(C)c(Cc3ccccc3)c2C)nc1C,inactive: 2.31%,
COCc1cc(C)nc2sc3c(=O)n(-c4ccccc4C(F)(F)F)nnc3c12,inactive: -4.33%,
Cc1ccc(C)c(CSc2nnc3[nH]c(=O)cc(-c4ccccc4)n23)c1,inactive: -8.28%,
CCCn1cc(S(=O)(=O)c2cc(C)ccc2C)c(=O)c2cc(F)c(N3CCN(CC)CC3)cc21,inactive: -13.8%,
CCOC(=O)c1c(S(=O)(=O)NCC(=O)NCc2ccccc2Cl)c(C)n(C)c1C,inactive: 6.09%,
COCCCn1c(=O)c2sccc2n2c(CCCC(=O)NC3CCC(C)CC3)nnc12 (stereo unspecified),inactive: -14.8%,
CCCCCCCc1ccc(CCc2cccc(O)c2C(=O)O)cc1,inactive: -3.5%,
Cc1cccc(C)c1-n1ncc(C(=O)N2CCN(c3ncccn3)CC2)c1C1CCN(C(=O)OC(C)(C)C)CC1,inactive: -4.9%,
COc1ccc(C(=O)N(Cc2ccc(N(C)C)cc2)CC2CCCO2)cc1 (stereo unspecified),inactive: 0.0953%,
CC(C)(N)C(=O)N[C@H](COCc1ccccc1)C(=O)N1CCC2(CC1)CN(S(C)(=O)=O)c1ccccc12,inactive: 3.55%,
CCN1CCN(Cc2c(O)ccc3c(=O)c(Oc4ccccc4C(C)C)c(C(F)(F)F)oc23)CC1,inactive: -18.6%,
CCCN1CCN(CCCNC(=O)Cn2nc(C)n3c(cc4c(OC)cccc43)c2=O)CC1,inactive: 1.77%,
Cc1ccc(CNC(=O)c2cc3ccc4cccnc4c3[nH]2)cc1,inactive: 24.9%,
CCN(C(=O)Cn1c(=O)n(Cc2ccccc2)c(=O)c2c1c1cc(OC)ccc1n2C)c1ccccc1,inactive: -12.8%,
Cc1ccc(NC(=O)Cn2cnc3c2c(=O)n(C)c(=O)n3C)cc1C,inactive: -5.97%,
COc1cc(Cl)c(C)cc1NC(c1ccccc1)c1nnc(-c2ccccc2Cl)o1 (stereo unspecified),inactive: -6.22%,

Structure (SMILES),"activity change, negative = inhibition",Potency
Cc1ccccc1CNC(=O)c1ccc2nc(C(C)C)oc2c1,inactive: -5.1%,
CC(=O)Nc1ccc2nc(NC(=O)CS(=O)(=O)c3ccc(C)cc3)sc2c1,inactive: -13.6%,
CCC(C)n1c(=N)c(C(=O)NC2CCCCC2)cc2c(=O)n3ccccc3nc21 (stereo unspecified),inactive: 0.917%,
Cc1ccc(C)c(N2CCN(S(=O)(=O)c3cn(C)c(C)n3)CC2)c1,inactive: -7.62%,
Cc1ccc2c(=O)cc(C(=O)Nc3sc4c(c3C(=O)NCC3CCCO3)CCCC4)oc2c1C (stereo unspecified),inactive: -3.4%,
Cc1ccc(Cl)cc1NC(=O)CCc1c(C)nc2c3cccnc3nn2c1C,inactive: -12.3%,
COc1ccc(-c2ccc3c(N)c(C(=O)NCc4ccc(C)cc4)sc3n2)cc1,inactive: -5.08%,
CC(C)(C)OC(=O)N1CCC(c2c(C(=O)NCCN3CCOCC3)cnn2-c2ccc(F)cc2)CC1,inactive: -5.13%,
O=C(COc1ccc(F)cc1)Nc1nnc(SCc2cc(=O)n3ccccc3n2)s1,inactive: 11.4%,
COc1ccc(C)cc1NC(=O)C(Cc1ccccc1)NS(=O)(=O)c1ccc(Br)s1 (stereo unspecified),inactive: -8.66%,
COc1ccc(N2Cc3cccc(C(=O)Nc4ccc(Cl)cc4)c3C2=O)cc1,inactive: -1.62%,
COc1cccc(Cn2c(SCc3ccc(C(=O)N4CCCCC4)cc3)nc3ccncc32)c1,,active: 12.6 µM
Cc1cc(Cl)ccc1NC(=O)CN1C(=O)COc2ccc(S(=O)(=O)Nc3ccccc3)cc21,inactive: -7.73%,
CCOC(=O)C1CCCN(C(=O)c2ccc3c(c2)sc2nc(-c4ccc(C)cc4C)cn23)C1 (stereo unspecified),inactive: -4.87%,
COc1cc(NC(=O)c2ccc3c(Cl)c4c(nc3c2)CCC4)cc(OC)c1OC,inactive: -14%,
CC(=O)c1cccc(-n2c(=O)c3c4c(sc3n(CC(=O)Nc3ccccc3F)c2=O)CN(C(C)=O)CC4)c1,inactive: 2.37%,
CCOC(=O)Cn1c(=O)c2c(nc(N3CCOCC3)n2Cc2ccccc2)n(C)c1=O,inactive: 2.57%,
CCc1ccc(CNC(=O)C2CCN(c3nnc(C)c4c(C)n(-c5ccc(C)cc5)nc34)CC2)cc1,inactive: -13.2%,
COc1cc([C@H]2Oc3cc([C@H]4Oc5cc(O)cc(O)c5C(=O)[C@H]4O)ccc3O[C@H]2CO)ccc1O,inactive: -15.1%,
COc1cc(-c2ccc(=O)[nH]n2)ccc1OC(F)F,inactive: 7.17%,
O=C(Cn1nc(-c2ccccc2)c2cnc3ccc(F)cc3c21)NC1CCCC1,inactive: -0.287%,

Structure (SMILES),"activity change, negative = inhibition",Potency
O=C(Nc1nnc(S(=O)(=O)N2CCCCCC2)s1)c1ccccc1F,inactive: 39.7%,
Cc1nc(N2CCOCC2)c2c(C(=O)N(C)Cc3ccccc3)c(C)oc2n1,inactive: 2.16%,
CCOc1cccc2sc(N3CCN(C(=O)C(C)(C)C)CC3)nc12,inactive: 20.9%,
Cc1ccc(-c2nnc(SCC(=O)N3CCCc4ccccc43)o2)cc1,inactive: -8.28%,
Cc1cc(NC(=O)CSc2nc3c([nH]c4ccccc43)c(=O)n2-c2ccccc2F)no1,inactive: -9.53%,
Cc1ccc(C(=O)c2oc3ccccc3c2NC(=O)c2cc(=O)c3cc(C)ccc3o2)cc1,inactive: -9.67%,
COc1cccc(Cn2ccn(-c3ccc(F)cc3)c(=O)c2=O)c1,inactive: -8.05%,
Cc1ccc(NC(=O)c2nnn(Cc3cccc(C(F)(F)F)c3)c2N)c(C)c1,inactive: -26.9%,
O=C(Nc1ccc(Cl)cc1)N1CCC(CN2CCCCCC2)CC1,inactive: 3.27%,
COc1ccc(NC(=O)Cn2cc(C(=O)c3ccncc3)c(=O)c3cc(C)ccc32)cc1Cl,inactive: -6.36%,
COC(=O)c1ccc(-n2nnc(-c3nc(-c4ccccc4Cl)no3)c2C)cc1,inactive: 4.81%,
CCNC(=O)C1CCCN(c2ncnc3onc(C)c23)C1 (stereo unspecified),inactive: -8.33%,
CN1CCN(C(=O)Cn2c(-c3cccs3)cc3ccccc32)CC1,inactive: -13%,
COc1cc(OC)cc(C(=O)Nc2ccc(-c3nc4ccccc4s3)c(C)c2)c1,inactive: 35.8%,
COc1ccc(NC(=O)Cn2nc(-c3ccccc3)c3cnc4ccc(C)cc4c32)cc1,inactive: -7.01%,
Cc1ccc(OCC(=O)Nc2ccc3c(c2)sc(=O)n3C)cc1,inactive: -5.59%,
CCOC(=O)c1c(NC(=O)COc2ccc(CC)cc2)sc2c1CCCC2,inactive: -8.5%,
Cc1ccc(-c2nc(C(=O)N3CCN(c4ccccc4)CC3)c3n2CCCCC3)cc1,inactive: -17.9%,
COc1ccc(NC(=O)C(NC(=O)C2CCC(C)CC2)C(C)C)cc1 (stereo unspecified),inactive: 1.51%,
